The other results are listed elsewhere or left out.
B1: PhoQ; a variant is named by its letters at X, in order, P23837 (parent)
chain: MKKLLRLFFPLSLRVRFLLATAAVVLVLSLAYGMVALIGYSVSFDKTTFRLLRGESNLFYTLAKWENNKLHVELPENIDKQSPTMTLIYDENGQLLWAQRDVPWLMKMIQPDWLKSNGFHEIEADVNDTSLLLSGDHSIQQQLQEVREDDDDAEMTHSVAVNVYPATSRMPKLTIVVVDTIPVELKSSYMVWSWFIYVLSANLLLVIPLLWVAAWWSLRPIEALAKEVRELEEHNRELLNPATTRELTSLVRNLNRLLKSERERYDKYRTTLTDLTHSLKTPLXXLQXXLRSLRSEKMSVSDAEPVMLEQISRISQQIGYYLHRASMRGGTLLSRELHPVAPLLDNLTSALNKVYQRKGVNISLDISPEISFVGEQNDFVEVMGNVLDNACKYCLEFVEISARQTDEHLYIVVEDDGPGIPLSKREVIFDRGQRVDTLRPGQGVGLAVAREITEQYEGKIVAGESMLGGARMEVIFGRQHSAPKDE

Variants of: B1
Assay: enrichment ratio after two sorts for PhoP signalling (ratio (wild type AVST 3.29)); higher = more functional
Conditions: with PhoP (E. coli)

With IVHQ as the variant, how does the enrichment ratio read?
The enrichment ratio was no more than 0.25.

For RWMA, which enrichment ratio is on record?
Its enrichment ratio is no more than 0.25.

For PCEH, which enrichment ratio is on record?
The enrichment ratio was no more than 0.25.

Which enrichment ratio does the source give for LQYE here?
The enrichment ratio was no more than 0.25.

How did the enrichment ratio turn out when NYCH was run?
The enrichment ratio was no more than 0.25.

WQRT was tested. Which enrichment ratio did it give?
Its enrichment ratio is no more than 0.25.

VGRH was tested. Which enrichment ratio did it give?
Its enrichment ratio is no more than 0.25.

Which enrichment ratio does the source give for WLVV here?
Its enrichment ratio is no more than 0.25.

How did the enrichment ratio turn out when MINS was run?
Its enrichment ratio is no more than 0.25.

FGCM was tested. Which enrichment ratio did it give?
Its enrichment ratio is 2.78.

How did the enrichment ratio turn out when NNEC was run?
Its enrichment ratio is no more than 0.25.

For QRNC, which enrichment ratio is on record?
Its enrichment ratio is no more than 0.25.

How did the enrichment ratio turn out when DQRH was run?
Its enrichment ratio is no more than 0.25.

For DIPR, which enrichment ratio is on record?
The enrichment ratio was no more than 0.25.

Which enrichment ratio does the source give for LDND here?
Its enrichment ratio is no more than 0.25.

PWPN was tested. Which enrichment ratio did it give?
The enrichment ratio was no more than 0.25.

HIGD was tested. Which enrichment ratio did it give?
The enrichment ratio was no more than 0.25.

With WIRQ as the variant, how does the enrichment ratio read?
Its enrichment ratio is no more than 0.25.

For HFLW, which enrichment ratio is on record?
Its enrichment ratio is no more than 0.25.

How did the enrichment ratio turn out when KCQT was run?
Its enrichment ratio is no more than 0.25.

Which enrichment ratio does the source give for IYVR here?
Its enrichment ratio is no more than 0.25.

How did the enrichment ratio turn out when QKVF was run?
Its enrichment ratio is no more than 0.25.

For WVSL, which enrichment ratio is on record?
Its enrichment ratio is no more than 0.25.

How did the enrichment ratio turn out when IMRG was run?
Its enrichment ratio is no more than 0.25.

For RKFA, which enrichment ratio is on record?
The enrichment ratio was no more than 0.25.

With EEHV as the variant, how does the enrichment ratio read?
Its enrichment ratio is no more than 0.25.

How did the enrichment ratio turn out when FTKW was run?
Its enrichment ratio is no more than 0.25.

How did the enrichment ratio turn out when YLHK was run?
The enrichment ratio was no more than 0.25.

Which enrichment ratio does the source give for RCCF here?
The enrichment ratio was no more than 0.25.

QAVQ was tested. Which enrichment ratio did it give?
The enrichment ratio was no more than 0.25.

IRLQ was tested. Which enrichment ratio did it give?
Its enrichment ratio is no more than 0.25.

How did the enrichment ratio turn out when YNQF was run?
The enrichment ratio was no more than 0.25.

With VEMW as the variant, how does the enrichment ratio read?
Its enrichment ratio is no more than 0.25.

With RQSI as the variant, how does the enrichment ratio read?
Its enrichment ratio is no more than 0.25.

How did the enrichment ratio turn out when AKMD was run?
The enrichment ratio was no more than 0.25.

With YDMF as the variant, how does the enrichment ratio read?
The enrichment ratio was no more than 0.25.

Which enrichment ratio does the source give for EFYP here?
The enrichment ratio was no more than 0.25.

GISI was tested. Which enrichment ratio did it give?
The enrichment ratio was 9.15.

With VGCQ as the variant, how does the enrichment ratio read?
The enrichment ratio was no more than 0.25.

With DIIM as the variant, how does the enrichment ratio read?
The enrichment ratio was no more than 0.25.

For QISH, which enrichment ratio is on record?
The enrichment ratio was 7.86.

Which enrichment ratio does the source give for YYRT here?
Its enrichment ratio is no more than 0.25.

Which enrichment ratio does the source give for GVVG here?
The enrichment ratio was no more than 0.25.

With LAEQ as the variant, how does the enrichment ratio read?
The enrichment ratio was no more than 0.25.

With HYDE as the variant, how does the enrichment ratio read?
Its enrichment ratio is no more than 0.25.

How did the enrichment ratio turn out when FMQP was run?
Its enrichment ratio is no more than 0.25.

Which enrichment ratio does the source give for WDPQ here?
Its enrichment ratio is no more than 0.25.

Which enrichment ratio does the source give for PNVA here?
Its enrichment ratio is no more than 0.25.

For YRND, which enrichment ratio is on record?
Its enrichment ratio is no more than 0.25.

How did the enrichment ratio turn out when RSYS was run?
Its enrichment ratio is no more than 0.25.

Which enrichment ratio does the source give for ENNH here?
Its enrichment ratio is no more than 0.25.

Which enrichment ratio does the source give for CSYQ here?
Its enrichment ratio is no more than 0.25.

Which enrichment ratio does the source give for RYCC here?
Its enrichment ratio is no more than 0.25.

With SNHQ as the variant, how does the enrichment ratio read?
Its enrichment ratio is no more than 0.25.

For WPWF, which enrichment ratio is on record?
Its enrichment ratio is no more than 0.25.

With VHNP as the variant, how does the enrichment ratio read?
Its enrichment ratio is no more than 0.25.

Which enrichment ratio does the source give for FNRE here?
The enrichment ratio was no more than 0.25.

With YPQF as the variant, how does the enrichment ratio read?
The enrichment ratio was no more than 0.25.

MLTK was tested. Which enrichment ratio did it give?
The enrichment ratio was no more than 0.25.

For ADGE, which enrichment ratio is on record?
The enrichment ratio was no more than 0.25.

For RWKL, which enrichment ratio is on record?
Its enrichment ratio is no more than 0.25.

How did the enrichment ratio turn out when EWKL was run?
Its enrichment ratio is no more than 0.25.

How did the enrichment ratio turn out when TWDI was run?
Its enrichment ratio is no more than 0.25.

For LCWD, which enrichment ratio is on record?
Its enrichment ratio is no more than 0.25.

How did the enrichment ratio turn out when QHMI was run?
The enrichment ratio was no more than 0.25.

How did the enrichment ratio turn out when LQLK was run?
Its enrichment ratio is no more than 0.25.

Which enrichment ratio does the source give for MAEL here?
The enrichment ratio was no more than 0.25.

With HTIV as the variant, how does the enrichment ratio read?
Its enrichment ratio is no more than 0.25.

MAGF was tested. Which enrichment ratio did it give?
Its enrichment ratio is 14.5.

How did the enrichment ratio turn out when QCMH was run?
Its enrichment ratio is no more than 0.25.

MLVG was tested. Which enrichment ratio did it give?
Its enrichment ratio is no more than 0.25.

Which enrichment ratio does the source give for WRVN here?
The enrichment ratio was no more than 0.25.

Which enrichment ratio does the source give for HNDD here?
Its enrichment ratio is no more than 0.25.

Which enrichment ratio does the source give for LITR here?
Its enrichment ratio is no more than 0.25.

With MGDC as the variant, how does the enrichment ratio read?
Its enrichment ratio is no more than 0.25.

RYCD was tested. Which enrichment ratio did it give?
Its enrichment ratio is no more than 0.25.

KASG was tested. Which enrichment ratio did it give?
The enrichment ratio was no more than 0.25.

How did the enrichment ratio turn out when EQSF was run?
The enrichment ratio was no more than 0.25.

With TILF as the variant, how does the enrichment ratio read?
The enrichment ratio was no more than 0.25.

For WGKM, which enrichment ratio is on record?
Its enrichment ratio is no more than 0.25.

With VKQL as the variant, how does the enrichment ratio read?
The enrichment ratio was no more than 0.25.

With QGRP as the variant, how does the enrichment ratio read?
The enrichment ratio was no more than 0.25.

How did the enrichment ratio turn out when IHGN was run?
Its enrichment ratio is no more than 0.25.

Which enrichment ratio does the source give for QCLI here?
Its enrichment ratio is no more than 0.25.

For VPAS, which enrichment ratio is on record?
The enrichment ratio was no more than 0.25.

SFLS was tested. Which enrichment ratio did it give?
The enrichment ratio was 3.63.

HGHW was tested. Which enrichment ratio did it give?
Its enrichment ratio is no more than 0.25.

Which enrichment ratio does the source give for QLDY here?
The enrichment ratio was no more than 0.25.

Which enrichment ratio does the source give for DPWH here?
Its enrichment ratio is no more than 0.25.

For RQSA, which enrichment ratio is on record?
The enrichment ratio was no more than 0.25.

KEFL was tested. Which enrichment ratio did it give?
The enrichment ratio was no more than 0.25.

EMYQ was tested. Which enrichment ratio did it give?
The enrichment ratio was no more than 0.25.

With IQDG as the variant, how does the enrichment ratio read?
The enrichment ratio was no more than 0.25.

QVGT was tested. Which enrichment ratio did it give?
The enrichment ratio was no more than 0.25.

How did the enrichment ratio turn out when QSCI was run?
Its enrichment ratio is no more than 0.25.

Which enrichment ratio does the source give for YNWQ here?
The enrichment ratio was no more than 0.25.

EFSA was tested. Which enrichment ratio did it give?
The enrichment ratio was no more than 0.25.

Which enrichment ratio does the source give for PCVI here?
The enrichment ratio was no more than 0.25.
